Test results taken from the antibiotic and cytotoxicity screens of Wong et al. (2023).
Some of the results follow.

Experiments:
HSkMC = human skeletal muscle cells; experiment: cytotoxicity call (relative viability < 0.9); conditions: 10 µM
HepG2 = experiment: cytotoxicity call (relative viability < 0.9); conditions: 10 µM
S. aureus RN4220 = experiment: growth inhibition call (relative growth <= 0.2); conditions: 50 µM

| Structure (SMILES) | cytotoxicity call (HSkMC) | cytotoxicity call (HepG2) | growth inhibition call (S. aureus RN4220) |
| --- | --- | --- | --- |
| CNC(=O)C[C@H]1CC[C@H]2[C@@H](COC[C@H](O)CN2C(=O)c2ccc3c(c2)OCO3)O1 | inactive | inactive | inactive |
| C[C@H]1CN([C@@H](C)CO)C(=O)Cc2cc(NS(=O)(=O)c3ccc(F)cc3)ccc2O[C@H]1CN(C)C(=O)Nc1cccc2ccccc12 | inactive | inactive | inactive |
| C[C@@H]1CN([C@H](C)CO)S(=O)(=O)c2ccc(C#C[C@@H](C)O)cc2O[C@@H]1CN(C)C(=O)Cc1ccccn1 | inactive | inactive | inactive |
| C[C@@H]1CN([C@H](C)CO)S(=O)(=O)c2ccc(C#CCN(C)C)cc2O[C@@H]1CN(C)Cc1ccccc1F | inactive | inactive | inactive |
| COc1cccc(NC(=O)N2C[C@@H](O)COC[C@@H]3O[C@@H](CC(=O)NCCCN4CCOCC4)CC[C@H]32)c1 | inactive | inactive | inactive |
| COc1ccc2c3c([nH]c2c1)[C@H](CO)N(C[C@]13CCN(CC1)C(=O)c1ccccc1F)C(=O)Nc1ccccc1F | inactive | inactive | inactive |
| Cn1cnc(S(=O)(=O)N[C@@H]2CC[C@H](CC(=O)Nc3ccccc3)O[C@H]2CO)c1 | inactive | inactive | inactive |
| C[C@@H]1CCCCO[C@H](CN(C)C(=O)CCCN(C)C)[C@H](C)CN([C@@H](C)CO)C(=O)c2cc(NC(=O)Nc3cccc4ccccc34)ccc2O1 | inactive | inactive | inactive |
| COc1ccc(NC(=O)N(C)C[C@@H]2OCCCC[C@@H](C)Oc3ccc(NS(=O)(=O)c4ccc(OC)cc4)cc3C(=O)N([C@@H](C)CO)C[C@@H]2C)cc1 | inactive | inactive | inactive |
| Cc1noc(C)c1NC(=O)Nc1ccc2c(c1)C(=O)N([C@@H](C)CO)C[C@@H](C)[C@@H](CN(C)Cc1ccc(Oc3ccccc3)cc1)O2 | inactive | inactive | inactive |
| C[C@H](CO)N1C[C@H](C)[C@@H](CN(C)C(=O)Nc2ccc3c(c2)OCO3)Oc2c(NC(=O)c3cnccn3)cccc2C1=O | inactive | inactive | inactive |
| C[C@@H]1CCCCO[C@@H](CN(C)C(=O)C2CCCCC2)[C@H](C)CN([C@H](C)CO)C(=O)c2cc(NC(=O)c3ccccc3)ccc2O1 | inactive | inactive | inactive |
| C[C@@H]1CN([C@@H](C)CO)C(=O)c2cccc(NS(=O)(=O)c3ccc(F)cc3)c2O[C@@H]1CN(C)S(=O)(=O)c1cn(C)cn1 | inactive | inactive | inactive |
| Cc1ccc(S(=O)(=O)N(C)C[C@H]2Oc3ncc(C#CC4(O)CCCC4)cc3C(=O)N([C@H](C)CO)C[C@@H]2C)cc1 | inactive | inactive | inactive |
| C[C@@H]1CCCCO[C@@H](CN(C)Cc2ccccc2)[C@@H](C)CN([C@H](C)CO)C(=O)c2cc(NS(=O)(=O)c3cccs3)ccc2O1 | inactive | inactive | inactive |
| C[C@@H]1CCCCO[C@@H](CN(C)Cc2ccc(Cl)c(Cl)c2)[C@H](C)CN([C@@H](C)CO)C(=O)c2cc(NS(=O)(=O)c3ccc(F)cc3)ccc2O1 | active | active | inactive |
| NC(=O)NC(CCC(=O)O)C(=O)O (stereo not drawn) | inactive | inactive | inactive |
| CNC(=O)C[C@H]1CC[C@@H]2[C@H](COC[C@H](O)CN2C(=O)c2ccccn2)O1 | inactive | inactive | inactive |
| C[C@@H]1CN([C@H](C)CO)C(=O)c2cccc(NC(=O)Nc3ccc(C(F)(F)F)cc3)c2O[C@H]1CN(C)Cc1ccc(Cl)c(Cl)c1 | active | inactive | inactive |
| NC(=O)NN=Cc1ccc([N+](=O)[O-])o1 | inactive | active | active |
| O=C(Nc1cccc2cccnc12)[C@H]1[C@@H](c2ccc(C(F)(F)F)cc2)CC(=O)N1C(=O)OCc1ccccc1 | inactive | inactive | inactive |
| O=C(C[C@H]1C=C[C@@H](NC(=O)c2ccc3c(c2)OCO3)[C@@H](CO)O1)NCc1ccc(Oc2ccccc2)cc1 | inactive | inactive | inactive |
| O=C1CC2(CCCC2)CC(=O)N1 | inactive | inactive | inactive |
| O=C1N(Cc2ccccc2)c2ccccc2[C@@H]2OC(c3ccc(OCCCO)cc3)=N[C@]12CCS(=O)(=O)c1ccccc1 | inactive | inactive | inactive |
| COc1ccc(NC(=O)N(C)C[C@@H]2OCCCC[C@@H](C)Oc3ccc(NC(=O)c4ccccc4)cc3C(=O)N([C@H](C)CO)C[C@H]2C)cc1 | inactive | active | inactive |
| C(=N\c1nc2ccccc2[nH]1)/N(c1ccccc1)c1ccccc1 | inactive | active | inactive |
